Results are given in words; binding and its absence hold for the method and conditions named. In cells and extracts the contact can be indirect. Some entries that bind do so weakly or less than the wild type.
What was measured:
[1] = target: N-6His-RCC1 recombinant protein (regulator of chromosome condensation 1) (UniProt P18754); assay: pull-down; Ni-NTA agarose beads coupled to 4 µg of recombinant N-6His GSTP1 or N-6His RCC1; 35S-labelled in vitro translated E7 proteins added; SDS-PAGE and autoradiography; only the target purified
[2] = target: N-6His-GSTP1 recombinant protein (human) (UniProt P09211); assay: as above

The chains behind the UniProt entries cited, without tags or fusion partners.
UniProt P18754: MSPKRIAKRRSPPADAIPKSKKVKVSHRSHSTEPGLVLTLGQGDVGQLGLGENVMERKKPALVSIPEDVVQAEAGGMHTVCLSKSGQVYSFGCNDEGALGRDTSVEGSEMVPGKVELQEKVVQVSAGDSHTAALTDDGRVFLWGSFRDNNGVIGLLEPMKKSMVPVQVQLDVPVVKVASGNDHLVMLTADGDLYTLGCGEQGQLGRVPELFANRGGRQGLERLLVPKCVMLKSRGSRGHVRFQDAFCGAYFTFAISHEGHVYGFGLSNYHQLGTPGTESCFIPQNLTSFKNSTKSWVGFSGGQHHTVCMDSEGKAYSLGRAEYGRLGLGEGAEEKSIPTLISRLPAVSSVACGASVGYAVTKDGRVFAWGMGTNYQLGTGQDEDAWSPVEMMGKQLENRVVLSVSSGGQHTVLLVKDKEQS
UniProt P09211: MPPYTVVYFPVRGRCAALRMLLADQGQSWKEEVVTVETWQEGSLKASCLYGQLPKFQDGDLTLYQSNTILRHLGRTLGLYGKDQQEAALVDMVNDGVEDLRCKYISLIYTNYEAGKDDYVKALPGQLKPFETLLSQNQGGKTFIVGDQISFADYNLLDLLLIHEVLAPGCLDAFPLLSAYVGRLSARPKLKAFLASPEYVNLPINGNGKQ

B1: radiolabeled IVT HPV-33 E7 (protein, UniProt P06429 1-97)
chain: MRGHKPTLKEYVLDLYPEPTDLYCYEQLSDSSDEDEGLDRPDGQAQPATADYYIVTCCHTCNTTVRLCVNSTASDLRTIQQLLMGTVNIVCPTCAQQ
modifications: 35S-cysteine label
With B1 the binding [1] was “no binding” and the binding [2] was “binds”.
